Several values for one entry are separate records, joined by “and”; a condition that tells them apart may be missing. Equal entries are not always repeated. The shares of active, inactive and inconclusive entries below differ from those in the screen. Potencies of inconclusive entries are doubtful fits and often do not repeat. The source holds several records for some structures; these can differ, active in one and inactive in another. Activity calls are given as the source filed them. Calls come from the whole dose curve; as a rule, active = well fitted curve in the direction sought with a large enough effect; inconclusive = small, poorly fitted or top-dose-only effect, or another doubt; inactive = no such curve, though single readings can be large; an effect the other way counts as inactive or inconclusive.
Legend:
[1] = Viability qHTS for spleen associated tyrosine kinase inhibitor (SYKi) naive MV4-11 cells (AID 1963823); conditions: MV4-11 AML viability, CellTiter-Glo luminescence, 72 h; viability (% of control): at 45 µM (top of the series); note: nearly all actives have a fitted effect of over 40% in size
Summary of the method: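 Luminescence from CellTiter-Glo, developed 10 min at room temperature, gave viability of MV4-11 cells never exposed to SYK inhibitor. Cells (500/well) had been incubated with compounds for 72 hr under standard culture conditions.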

[2] = Viability qHTS for spleen associated tyrosine kinase inhibitor (SYKi) drug resistant MV4-11 cells (AID 1963824); note: nearly all actives have a fitted effect of over 35% in size
Summary of the method: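 SYK-inhibitor-resistant MV4-11 AML cells were seeded at 500 per well onto compound and cultured 72 hours (37 °C, 5% CO2). CellTiter-Glo was then added, and after 10 min at room temperature, luminescence gave viability.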

[3] = Quantitative highthroughput screen to assess conditional lethalithy of NOMO1 cells grown in RPMI1640 with untreated serum (RPMI+s) (AID 1963876); conditions: NOMO1 AML cells in RPMI+serum, CellTiter-Glo viability, 48 h; viability: at 45.8 µM (top of the series); note: nearly all actives have a fitted effect of over 35% in size;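 for Viability: 100% = DMSO wells and 0% = empty wells without cells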
Summary of the method: (§1)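 Each medium arm—HPLM with 10% dialyzed FBS, or RPMI1640 with 5 mM glucose and 10% untreated or dialyzed FBS—was screened against an 11-point, 3-fold compound titration for 48 h at 37 °C, with CellTiter-Glo luminescence as endpoint.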

[4] = Quantitative highthroughput screen to assess conditional lethalithy of NOMO1 cells grown in Human Plasma-Like Medium with dialyzed fetal bovine serum (HPLM+ds) (AID 1963878); conditions: NOMO1 AML cells in HPLM+ds, CellTiter-Glo viability, 48 h; viability: at 45.8 µM (top of the series); note: nearly all actives have a fitted effect of over 35% in size;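 for Viability: 100% = DMSO wells and 0% = empty wells on each plate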
Summary of the method: as §1

[5] = Quantitative highthroughput screen to assess conditional lethalithy of P12 Ichikawa cells grown in RPMI1640 with untreated serum (RPMI+s) (AID 1963881); conditions: Potency: viability; note: nearly all actives have a fitted effect of over 35% in size;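 for Viability: 100% = DMSO wells and 0% = empty wells without cells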
Summary of the method: as §1

[6] = Quantitative highthroughput screen to assess conditional lethalithy of SEM cells grown in RPMI1640 with unreated serum (RPMI+s) (AID 1963883); conditions: SEM B-ALL cells, CellTiter-Glo viability, 48 h; viability: at 45.8 µM (top of the series); note: nearly all actives have a fitted effect of over 35% in size;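 for Viability: 100% = DMSO wells and 0% = empty wells without cells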
Summary of the method: as §1

[7] = Quantitative highthroughput screen to assess conditional lethalithy of SEM cells grown in RPMI1640 with dialyzed fetal bovine serum (RPMI+ds) (AID 1963884); conditions: SEM B-ALL cells, RPMI+dialyzed FBS, CellTiter-Glo viability, 48 h; viability: at 45.8 µM (top of the series); note: nearly all actives have a fitted effect of over 35% in size;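 for Viability: 100% = DMSO control wells and 0% = empty wells without cells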
Summary of the method: as §1

[8] = Cellular viability qHTS for adrenocortical cancer (ACC) cell line NCI-H295R (AID 1963990); conditions: CellTiter-Glo ATP luminescence, 48 h; activity change, negative = viability loss: at 46.1 µM (top of the series); note: nearly all actives have a fitted effect of over 60% in size;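 for activity change, negative = viability loss: 0% = DMSO only wells and -100% = full killing with cytotoxic reference compound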
Summary of the method: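 Compound titrations (up to 46 uM final) are applied to NCI-H295R cultures for 48 h at 37C. Viable cell number is estimated by CellTiter-Glo signal, normalised to DMSO and doxorubicin controls.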

[9] = Cellular viability qHTS for adrenocortical cancer (ACC) cell line SW-13 (AID 1963989); conditions: SW-13 ACC cells viability, CellTiter-Glo, 48 h; activity (max response): stronger effect = lower value; note: nearly all actives have a fitted effect of over 65% in size
Summary of the method: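 48 h treatment, SW-13 in ITS/DMEM serum-free; doses up to 46 uM; readout CellTiter-Glo luminescence; curve fit four-parameter logistic.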

[10] = Quantitative highthroughput screen to assess conditional lethalithy of P12 Ichikawa cells grown in Human Plasma-Like Medium with dialyzed fetal bovine serum (HPLM+ds) (AID 1963879); conditions: Potency: viability; note: nearly all actives have a fitted effect of over 35% in size
Summary of the method: as §1

[11] = Quantitative highthroughput screen to assess conditional lethalithy of P12 Ichikawa cells grown in RPMI1640 with dialyzed fetal bovine serum (RPMI+ds) (AID 1963880); conditions: Potency: P12-Ichikawa viability; note: nearly all actives have a fitted effect of over 35% in size;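 for Viability: 100% = DMSO wells and 0% = empty wells on each plate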
Summary of the method: as §1

[12] = Quantitative highthroughput screen to assess conditional lethalithy of SEM cells grown in Human Plasma-Like Medium with dialyzed fetal bovine serum (HPLM+ds) (AID 1963882); note: nearly all actives have a fitted effect of over 35% in size
Summary of the method: as §1
Potency is the fitted concentration of half-maximal effect; tags give direction and shape of the fitted curve.

SMILES	Potency [1]	Potency [2]	Potency [3]	Potency [4]	Potency [5]	Potency [6]	Potency [7]	Potency [8]	Potency [9]	Potency [10]	Potency [11]	Potency [12]	viability [7]
O=C1C[C@@H](c2ccc(O)cc2)Oc2cc(O)cc(O)c21	inconclusive: 23.5 µM [cytotoxic, single point]	inconclusive: 37.2 µM [cytotoxic, single point]	inactive	inactive	inactive	inactive	inactive	inactive	–	–	–	–	–
O=C(O)c1cccnc1Nc1cccc(C(F)(F)F)c1	inactive	inconclusive: 0.211 µM [cytotoxic, partial curve, poor fit]	inactive	inactive	–	inconclusive: 0.296 µM [cytotoxic, full curve, poor fit]	inconclusive: 0.296 µM [cytotoxic, full curve, poor fit]	inconclusive: 25.9 µM [cytotoxic, single point]	inconclusive: 20.6 µM [cytotoxic, partial curve, poor fit]	–	–	–	–
O=C1NC(=O)C(c2cnc3ccccn23)=C1c1cn2c3c(cccc13)CN(C(=O)N1CCOCC1)CC2	active: 0.231 µM	active: 0.092 µM	inactive	–	inconclusive: 0.0372 µM [cytotoxic, full curve]	–	active: 0.0074 µM	–	–	inconclusive: 0.0526 µM [cytotoxic, full curve]	inconclusive: 0.132 µM [cytotoxic, full curve]	active: 0.0066 µM	–
CNC(=O)c1cc(COc2nnc(Nc3ccc(Cl)cc3)c3ccoc23)ccn1	inconclusive: 8.33 µM [cytotoxic, full curve]	inconclusive: 8.33 µM [cytotoxic, full curve]	inactive	inconclusive: 20.9 µM [cytotoxic, single point]	inactive	–	inconclusive: 16.6 µM [cytotoxic, partial curve]	–	–	–	–	active: 16.6 µM	–
Nc1c2c(nc3ccccc13)CCCC2	inconclusive: 18.6 µM [cytotoxic, partial curve]	inactive	inconclusive: 1.18 µM [cytotoxic, full curve, poor fit]	inconclusive: 1.18 µM [cytotoxic, full curve, poor fit]	–	–	inactive	–	–	–	–	–	–
C[C@@H]1C(=O)O[C@H]2CC34[C@H]5C[C@@H](C(C)(C)C)C36[C@H](OC(=O)[C@@H]6O)O[C@@]4(C(=O)O5)[C@]21O (some centres undefined)	inactive	inactive	inactive	inactive	–	inactive	inactive	inactive	–	–	–	–	–
CN(CCOc1ccc(CC2SC(=O)NC2=O)cc1)c1ccccn1 (centres undefined)	inconclusive: 6.68 µM [cytotoxic, partial curve, poor fit] and inconclusive: 16.6 µM [cytotoxic, partial curve]	active: 13.3 µM and inconclusive: 29.5 µM [cytotoxic, partial curve, poor fit]	inactive	–	–	inactive	–	inactive	–	inactive	–	inactive	–
O=C(Nc1ccccc1-c1cn2c(CN3CCNCC3)csc2n1)c1cnc2ccccc2n1	inconclusive: 1.86 µM [cytotoxic, full curve]	active: 13 µM and inconclusive: 2.35 µM [cytotoxic, full curve]	inconclusive: 29.6 µM [cytotoxic, single point]	–	–	–	–	–	–	inconclusive: 29.6 µM [cytotoxic, single point]	inconclusive: 29.6 µM [cytotoxic, single point]	–	–
N[C@H]1CN(c2c(F)cc3c(=O)c(C(=O)O)cn(C4C[C@@H]4F)c3c2Cl)CC12CC2 (some centres undefined)	inconclusive: 13.3 µM [cytotoxic, partial curve]	inconclusive: 8.41 µM [cytotoxic, partial curve, poor fit]	inconclusive: 8.33 µM [cytotoxic, single point]	inconclusive: 11.8 µM [cytotoxic, single point]	–	–	inconclusive: 11.8 µM [cytotoxic, single point]	–	–	–	–	inconclusive: 11.8 µM [cytotoxic, partial curve, poor fit]	–
C[C@H](c1ccc(F)cc1CCCC(=O)O)N(c1cc(F)ccc1F)S(=O)(=O)c1ccc(Cl)cc1	inconclusive: 16.4 µM [cytotoxic, partial curve, poor fit] and inconclusive: 18.6 µM [cytotoxic, partial curve]	inconclusive: 11.6 µM [cytotoxic, partial curve] and active: 18.6 µM	inactive	–	–	inconclusive: 37.2 µM [cytotoxic, single point]	–	–	–	–	inactive	inconclusive: 23.5 µM [cytotoxic, single point]	inconclusive: 66.6% [cytotoxic]
Nc1[nH]c(=O)ncc1F	inactive	inactive	inactive	inconclusive: 0.0372 µM [cytotoxic, single point]	–	–	inactive	–	inconclusive: 23.1 µM [cytotoxic, partial curve, poor fit]	–	–	–	–
